Experimental findings from ChEMBL document CHEMBL4888484, “Replenishing the malaria drug discovery pipeline: Screening and hit evaluation of the MMV Hit Generation Library 1 (HGL1) against asexual blood stage Plasmodium falciparum ,using a nano luciferase reporter read-out” (2022) are described below.

The term % Inhibition denotes the change of the read-out against control, counted positive when it falls.

Hit rate of the full screen: of about 150,000 compounds, about 540 (0.36%) showed an effect of 50% or more. Some of the results follow.

The experiment has as its system Plasmodium falciparum. Briefly: Primary screen in NF54 nanoGlo assay, in single point, at 2uM, 72h; a lower Z score goes with more inhibition. It counts as functional, Erythrocyte. The conditions noted are these: timepoint 72 hour.
For the compound `Cn1cc(S(=O)(=O)NC(=O)[C@H]2CC2(Cl)Cl)c2ccccc21`, the “% Inhibition” value is given as -4% and the Z score is 0.53.

`CCOc1ccc(-c2[nH]c3ccc(Cl)c[n+]3c2C)cc1`: the “% Inhibition” value is -11% and the Z score is recorded as 2.08.

Take `CCC1(CC)C(=O)N(C)C(=O)N(C)/C1=N/c1ccc(OC)cc1`: the “% Inhibition” value is recorded as -19% and the Z score is listed as 2.27.

Take `CC(C)[C@H](CNC(=O)NCc1cc(C(N)=O)co1)Cc1ccccc1`: the “% Inhibition” value amounted to 3% and the Z score is given as -0.42.

As to `Cc1cccc(OCC(=O)c2ccc3c(c2)N([C@@H](C)C(=O)N2CCOCC2)C(=O)CO3)c1`, the “% Inhibition” value is recorded as -25% and the Z score stood at 2.69.

As to `CCOc1nc(C)ccc1C(=O)N1CC(OC(C)C)C1`, the “% Inhibition” value is given as -11% and the Z score was 1.37.

On to `O=C(Cn1cc(C(=O)c2ccncc2)c(=O)c2cc(Br)ccc21)Nc1cccc(F)c1`, for which the “% Inhibition” value is recorded as -11% and the Z score amounted to 1.37.

In the case of `COc1cccc(OC[C@@H](O)CNC(=O)c2ccc3[nH]c(CO)nc3c2)c1`, the “% Inhibition” value is -2% and the Z score came to 0.27.

As for `Cc1ccc(C(=O)NCC(=O)c2ccco2)c(F)c1`, the “% Inhibition” value is reported as -2% and the Z score is listed as 0.24.

As to `Cc1cnc(N2Cc3nnc(C4CCOCC4)n3[C@@H](Cc3c[nH]cn3)C2)nc1`, the “% Inhibition” value is listed as 1% and the Z score is on record as -0.09.

Take `Cc1cccc(Nc2ncnc(C)c2C)n1`: the “% Inhibition” value worked out at 1% and the Z score was -0.16.

For `CNC(=O)NC(=O)CNC1CCCCC1C(C)(C)C` (centres undefined), the “% Inhibition” value is -2% and the Z score is 0.29.

`C[C@@H]1CN(C(=O)C2CCCOC2)C[C@H](C)N1CCO` (some centres undefined): the “% Inhibition” value was -3% and the Z score was 0.62.

`Cn1cc(CN2CC(F)(F)C(F)(F)C2)cn1`: the “% Inhibition” value is given as 4% and the Z score was -0.65.

Consider `CCCn1nccc1C(=O)NCc1nc(C2CC2)no1`, for which the “% Inhibition” value worked out at 3% and the Z score was -0.72.

With `Cc1cnc(C(=O)N2c3ccccc3C[C@H]2c2nc(C3CC3)no2)cn1`, the “% Inhibition” value was -5% and the Z score was 0.63.

As to `O=C(Nc1ccc(Cl)c(Cl)c1)C1[C@@H]2C=C[C@]3(O2)C(C(=O)NC2CCCCC2)N(CCN2CCCCC2)C(=O)[C@H]13` (some centres undefined), the “% Inhibition” value is recorded as -3% and the Z score came to 0.42.

For `Cc1cc(C)nc(O[C@H]2CCN(C(=O)c3sc(C)nc3C)C2)n1`, the “% Inhibition” value was -17% and the Z score turned out to be 2.62.

For the compound `O=C(O)[C@H](CO)Nc1nc(-c2ccccc2)nc2ccccc12`, the “% Inhibition” value is -16% and the Z score turned out to be 1.44.

In the case of `Cc1cccc2c(C(=O)O)c3c(nc12)CCCCC3`, the “% Inhibition” value is given as -4% and the Z score came to 0.51.

In the case of `NC(=O)C1CCN(Cn2nc(C3CC3)cc(C(F)(F)F)c2=O)CC1`, the “% Inhibition” value came out at 1% and the Z score is given as -0.13.

Consider `COc1cc(Br)cc(C#N)c1O`, for which the “% Inhibition” value amounted to 41% and the Z score is -5.92.

Consider `O=C1C[C@@H](c2nc(-c3sc4ccccc4c3Cl)no2)CCN1`, for which the “% Inhibition” value is -1% and the Z score was found to be 0.14.

`CC(C)Cc1ccc(S(=O)(=O)N2CCC[C@H]2c2nncn2Cc2ccncc2)cc1`: the “% Inhibition” value amounted to 4% and the Z score is on record as -0.83.

In the case of `O=C(c1nc(C2CC2)nn1-c1ccccc1C(F)(F)F)N1CCOCC1`, the “% Inhibition” value is on record as -8% and the Z score is recorded as 1.52.

With `COc1cc(NCc2ccc(C)c(F)c2)ncn1`, the “% Inhibition” value is listed as -6% and the Z score was determined as 0.93.

With `NC(=O)Cn1ccnc1[C@H]1CCCN(C(=O)c2ccc(-n3cccn3)cc2)C1`, the “% Inhibition” value is given as 5% and the Z score is on record as -0.88.

In the case of `CCOc1ccc(S(=O)(=O)N2CCC[C@H](Oc3ccncc3Cl)C2)cc1F`, the “% Inhibition” value came out at 3% and the Z score is recorded as -0.37.

As to `CC[C@@H](C(=O)Nc1cc(C)nn1-c1nc2c(c(=O)[nH]1)CCC2)c1ccccc1`, the “% Inhibition” value is 17% and the Z score is listed as -3.37.

As for `CCN(CC)S(=O)(=O)c1ccc(C(=O)N(CC(N)=O)C(C)(C)C)cc1`, the “% Inhibition” value is given as -15% and the Z score stood at 1.72.

On to `O=C(NCc1ccc(-c2nc3ccccc3o2)cc1)c1ccccc1Br`, for which the “% Inhibition” value is on record as -12% and the Z score was 1.3.

Consider `CN(Cc1ccccc1)[C@@H]1COC2(C1)CN(C(=O)Cc1cccs1)C2`, for which the “% Inhibition” value is on record as -6% and the Z score was found to be 0.93.

Consider `O=C(O)/C(=C\c1cn(-c2ccccc2)nc1-c1ccccc1)NC(=O)c1ccccc1`, for which the “% Inhibition” value is recorded as -5% and the Z score stood at 0.61.

For `O=C(C1CCN(c2cc3c(nn2)CCC3)CC1)N1CCC(F)(F)CC1`, the “% Inhibition” value turned out to be 13% and the Z score is -1.72.

Take `Cn1cnc2c1CCN(CCOc1ccccc1C#N)C2`: the “% Inhibition” value was -7% and the Z score was found to be 0.94.

Consider `COc1ccc(C)nc1-c1ccc(N(C)C)nc1`, for which the “% Inhibition” value is recorded as 1% and the Z score was -0.1.

Consider `CC1=NN(c2nc(-c3ccccc3)cs2)C(=O)[C@H]1C`, for which the “% Inhibition” value was found to be 3% and the Z score is -0.55.

Consider `C[C@H](NC(=O)c1cc2c(s1)CCCCC2)c1cn[nH]c1`, for which the “% Inhibition” value is listed as -15% and the Z score stood at 1.45.

On to `CC(C)Cn1c(C[C@H]2CCN(C(=O)Nc3ccccc3)C2)nc2cccnc21`, for which the “% Inhibition” value is -10% and the Z score stood at 0.98.

For the compound `CCN(C1CC1)S(=O)(=O)c1c(C)n[nH]c1C`, the “% Inhibition” value is 4% and the Z score is -0.6.

As for `Cc1ncc(CN2CC(O)(c3ccccc3)C2)s1`, the “% Inhibition” value was -3% and the Z score was 0.4.

Regarding `Cc1nc(CN(C)CCc2nccs2)cs1`, the “% Inhibition” value was -8% and the Z score was 1.03.
